# Experimental data: the supplement of paper PMC8728848
# This is one part of the list.
# What was measured:
# Experiment in all cases: glycan array binding signal (z-score within array); higher = stronger binding
# Conditions in all cases: glycan notation: IUPAC condensed, linker removed
# [1] = target: GlcNAc(a1-4)Gal(b1-4)GlcNAc(b1-3)Gal(b1-4)GlcNAc
# How it was run: (§1)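 The binding signal is a Z-score computed within each array. Data were drawn from 3228 arrays in the Consortium for Functional Glycomics database, restricted to those with a known protein sequence. Scores were averaged over arrays of the same protein sequence at different concentrations or buffers, and over linkers, and negative values can be taken as non-binding.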
# [2] = target: GlcNAc(a1-4)Gal(b1-4)GlcNAc(b1-3)Gal(b1-4)GlcNAc(b1-3)Gal(b1-4)GlcNAc
# How it was run: as §1
# [3] = target: GlcNAc(a1-4)Gal(b1-4)GlcNAc(b1-3)Gal(b1-4)[Fuc(a1-3)]GlcNAc(b1-3)Gal(b1-4)[Fuc(a1-3)]GlcNAc
# How it was run: as §1
# [4] = target: GlcNAc(a1-6)Gal(b1-4)GlcNAc
# How it was run: as §1
# [5] = target: GlcNAc(b1-2)Gal(b1-3)GalNAc
# How it was run: as §1
# [6] = target: GlcNAc(b1-2)Gal(b1-3)GlcNAc
# How it was run: as §1
# [7] = target: GlcNAc(b1-2)Man(a1-3)[GlcNAc(b1-2)Man(a1-6)]Man(b1-4)GlcNAc(b1-4)GlcNAc
# How it was run: as §1
# [8] = target: GlcNAc(b1-2)Man(a1-3)[GlcNAc(b1-2)Man(a1-6)]Man(b1-4)GlcNAc(b1-4)[Fuc(a1-6)]GlcNAc
# How it was run: as §1
# [9] = target: GlcNAc(b1-2)Man(a1-3)[GlcNAc(b1-4)][GlcNAc(b1-2)Man(a1-6)]Man(b1-4)GlcNAc(b1-4)GlcNAc
# How it was run: as §1
# [10] = target: GlcNAc(b1-2)Man(a1-3)[GlcNAc(b1-4)][GlcNAc(b1-2)Man(a1-6)]Man(b1-4)GlcNAc(b1-4)[Fuc(a1-6)]GlcNAc
# How it was run: as §1
# [11] = target: GlcNAc(b1-2)[GlcNAc(b1-4)]Man(a1-3)[GlcNAc(b1-2)Man(a1-6)]Man(b1-4)GlcNAc(b1-4)GlcNAc
# How it was run: as §1
# [12] = target: GlcNAc(b1-2)[GlcNAc(b1-4)]Man(a1-3)[GlcNAc(b1-4)][GlcNAc(b1-2)Man(a1-6)]Man(b1-4)GlcNAc(b1-4)GlcNAc
# How it was run: as §1
# [13] = target: GlcNAc(b1-2)[GlcNAc(b1-4)]Man(a1-3)[GlcNAc(b1-4)][GlcNAc(b1-2)[GlcNAc(b1-6)]Man(a1-6)]Man(b1-4)GlcNAc(b1-4)GlcNAc
# How it was run: as §1
# [14] = target: GlcNAc(b1-2)[GlcNAc(b1-4)]Man(a1-3)[GlcNAc(b1-4)][GlcNAc(b1-2)[GlcNAc(b1-6)]Man(a1-6)]Man(b1-4)GlcNAc(b1-4)[Fuc(a1-6)]GlcNAc
# How it was run: as §1
# [15] = target: GlcNAc(b1-2)[GlcNAc(b1-6)]Man(a1-6)[GlcNAc(b1-2)Man(a1-3)]Man(b1-4)GlcNAc(b1-4)GlcNAc
# How it was run: as §1
# [16] = target: GlcNAc(b1-2)[GlcNAc(b1-6)]Man(a1-6)[GlcNAc(b1-2)Man(a1-3)]Man(b1-4)GlcNAc(b1-4)[Fuc(a1-6)]GlcNAc
# How it was run: as §1
# [17] = target: GlcNAc(b1-2)[GlcNAc(b1-6)]Man(a1-6)[GlcNAc(b1-4)][GlcNAc(b1-2)Man(a1-3)]Man(b1-4)GlcNAc(b1-4)GlcNAc
# How it was run: as §1
# GlcNAc(b1-3)Fuc = target: GlcNAc(b1-3)Fuc
# How it was run: as §1
# GlcNAc(b1-3)Gal = target: GlcNAc(b1-3)Gal
# How it was run: as §1
# [18] = target: GlcNAc(b1-3)Gal(b1-3)GalNAc
# How it was run: as §1
# GlcNAc(b1-3)Gal(b1-4)Glc = target: GlcNAc(b1-3)Gal(b1-4)Glc
# How it was run: as §1
# [19] = target: GlcNAc(b1-3)Gal(b1-4)GlcNAc
# How it was run: as §1
# [20] = target: GlcNAc(b1-3)Gal(b1-4)GlcNAc(b1-2)Man(a1-3)[GlcNAc(b1-3)Gal(b1-4)GlcNAc(b1-2)Man(a1-6)]Man(b1-4)GlcNAc(b1-4)GlcNAc
# How it was run: as §1
# [21] = target: GlcNAc(b1-3)Gal(b1-4)GlcNAc(b1-2)Man(a1-3)[GlcNAc(b1-3)Gal(b1-4)GlcNAc(b1-2)Man(a1-6)]Man(b1-4)GlcNAc(b1-4)[Fuc(a1-6)]GlcNAc
# How it was run: as §1
# [22] = target: GlcNAc(b1-3)Gal(b1-4)GlcNAc(b1-2)[GlcNAc(b1-3)Gal(b1-4)GlcNAc(b1-6)]Man(a1-6)[GlcNAc(b1-3)Gal(b1-4)GlcNAc(b1-2)Man(a1-3)]Man(b1-4)GlcNAc(b1-4)GlcNAc
# How it was run: as §1
# [23] = target: GlcNAc(b1-3)Gal(b1-4)GlcNAc(b1-3)Gal(b1-4)GlcNAc
# How it was run: as §1
# [24] = target: GlcNAc(b1-3)Gal(b1-4)GlcNAc(b1-3)Gal(b1-4)GlcNAc(b1-2)Man(a1-3)[GlcNAc(b1-3)Gal(b1-4)GlcNAc(b1-3)Gal(b1-4)GlcNAc(b1-2)Man(a1-6)]Man(b1-4)GlcNAc(b1-4)GlcNAc
# How it was run: as §1
# [25] = target: GlcNAc(b1-3)Gal(b1-4)GlcNAc(b1-3)Gal(b1-4)GlcNAc(b1-2)Man(a1-3)[GlcNAc(b1-3)Gal(b1-4)GlcNAc(b1-3)Gal(b1-4)GlcNAc(b1-2)Man(a1-6)]Man(b1-4)GlcNAc(b1-4)[Fuc(a1-6)]GlcNAc
# How it was run: as §1
# [26] = target: GlcNAc(b1-3)Gal(b1-4)GlcNAc(b1-3)Gal(b1-4)GlcNAc(b1-2)[GlcNAc(b1-3)Gal(b1-4)GlcNAc(b1-3)Gal(b1-4)GlcNAc(b1-6)]Man(a1-6)[GlcNAc(b1-3)Gal(b1-4)GlcNAc(b1-3)Gal(b1-4)GlcNAc(b1-2)Man(a1-3)]Man(b1-4)GlcNAc(b1-4)[Fuc(a1-6)]GlcNAc
# How it was run: as §1
# [27] = target: GlcNAc(b1-3)Gal(b1-4)GlcNAc(b1-3)Gal(b1-4)GlcNAc(b1-3)Gal(b1-4)GlcNAc(b1-2)Man(a1-3)[GlcNAc(b1-3)Gal(b1-4)GlcNAc(b1-3)Gal(b1-4)GlcNAc(b1-3)Gal(b1-4)GlcNAc(b1-2)Man(a1-6)]Man(b1-4)GlcNAc(b1-4)GlcNAc
# How it was run: as §1
# [28] = target: GlcNAc(b1-3)Gal(b1-4)GlcNAc(b1-3)Gal(b1-4)GlcNAc(b1-3)Gal(b1-4)GlcNAc(b1-2)Man(a1-3)[GlcNAc(b1-3)Gal(b1-4)GlcNAc(b1-3)Gal(b1-4)GlcNAc(b1-3)Gal(b1-4)GlcNAc(b1-2)Man(a1-6)]Man(b1-4)GlcNAc(b1-4)[Fuc(a1-6)]GlcNAc
# How it was run: as §1
# [29] = target: GlcNAc(b1-3)Gal(b1-4)GlcNAc(b1-3)Gal(b1-4)GlcNAc(b1-3)Gal(b1-4)GlcNAc(b1-2)[GlcNAc(b1-3)Gal(b1-4)GlcNAc(b1-3)Gal(b1-4)GlcNAc(b1-3)Gal(b1-4)GlcNAc(b1-6)]Man(a1-6)[GlcNAc(b1-3)Gal(b1-4)GlcNAc(b1-3)Gal(b1-4)GlcNAc(b1-3)Gal(b1-4)GlcNAc(b1-2)Man(a1-3)]Man(b1-4)GlcNAc(b1-4)[Fuc(a1-6)]GlcNAc
# How it was run: as §1
# [30] = target: GlcNAc(b1-3)Gal(b1-4)GlcNAc(b1-3)Gal(b1-4)GlcNAc(b1-3)Gal(b1-4)GlcNAc(b1-3)Gal(b1-4)GlcNAc(b1-2)Man(a1-3)[GlcNAc(b1-3)Gal(b1-4)GlcNAc(b1-3)Gal(b1-4)GlcNAc(b1-3)Gal(b1-4)GlcNAc(b1-3)Gal(b1-4)GlcNAc(b1-2)Man(a1-6)]Man(b1-4)GlcNAc(b1-4)GlcNAc
# How it was run: as §1
# [31] = target: GlcNAc(b1-3)Gal(b1-4)GlcNAc(b1-3)Gal(b1-4)GlcNAc(b1-3)Gal(b1-4)GlcNAc(b1-3)Gal(b1-4)GlcNAc(b1-2)Man(a1-3)[GlcNAc(b1-3)Gal(b1-4)GlcNAc(b1-3)Gal(b1-4)GlcNAc(b1-3)Gal(b1-4)GlcNAc(b1-3)Gal(b1-4)GlcNAc(b1-2)Man(a1-6)]Man(b1-4)GlcNAc(b1-4)[Fuc(a1-6)]GlcNAc
# How it was run: as §1
# [32] = target: GlcNAc(b1-3)Gal(b1-4)GlcNAc(b1-3)Gal(b1-4)GlcNAc(b1-3)Gal(b1-4)GlcNAc(b1-3)Gal(b1-4)GlcNAc(b1-2)[GlcNAc(b1-3)Gal(b1-4)GlcNAc(b1-3)Gal(b1-4)GlcNAc(b1-3)Gal(b1-4)GlcNAc(b1-3)Gal(b1-4)GlcNAc(b1-6)]Man(a1-6)[GlcNAc(b1-3)Gal(b1-4)GlcNAc(b1-3)Gal(b1-4)GlcNAc(b1-3)Gal(b1-4)GlcNAc(b1-3)Gal(b1-4)GlcNAc(b1-2)Man(a1-3)]Man(b1-4)GlcNAc(b1-4)[Fuc(a1-6)]GlcNAc
# How it was run: as §1
# [33] = target: GlcNAc(b1-3)Gal(b1-4)GlcNAc(b1-3)Gal(b1-4)GlcNAc(b1-3)GalNAc
# How it was run: as §1
# [34] = target: GlcNAc(b1-3)Gal(b1-4)GlcNAc(b1-3)GalNAc
# How it was run: as §1
# [35] = target: GlcNAc(b1-3)Gal(b1-4)GlcNAc(b1-3)[GlcNAc(b1-3)Gal(b1-4)GlcNAc(b1-3)]GalNAc
# How it was run: as §1
binder,measurement,setting,value
XL-35 (Xenopus laevis) (protein) MLVHILLLLVTGGLSQSCDPVVIVASKNMVKQLDCDKFRNCKEIKDSNEEAQDGIYTLTSPDGISYQTFCDMTTNGGGWTLVASVHENNMAGKCTIGDRWSSQQGNRADYPEGDGNWANYNTFGSAGGATSDDYKNPGYYDIEAYNLGVWHVPNKTPLSVWRNSSLQRYRTTDGILFKHGGNLFSLYRIYPVKYGIGSCSKDSGPTVPVVYDLGSANLTASFYSPGFRSQFTPGYIQFRPINTEKAALALCPGMKMESCNVEHVCIGGGGYFPEADPRQCGDFAAYDFNGYGTKKFNSAGIEITEAAVLLFYL,glycan array binding signal (z-score),[1],0.253
same,glycan array binding signal (z-score),[2],-0.301
same,glycan array binding signal (z-score),[3],1.05
same,glycan array binding signal (z-score),[4],-0.183
same,glycan array binding signal (z-score),[5],-0.166
same,glycan array binding signal (z-score),[6],-0.087
same,glycan array binding signal (z-score),[7],-0.101
same,glycan array binding signal (z-score),[8],0.138
same,glycan array binding signal (z-score),[9],-0.444
same,glycan array binding signal (z-score),[10],-0.371
same,glycan array binding signal (z-score),[11],-0.163
same,glycan array binding signal (z-score),[12],-0.191
same,glycan array binding signal (z-score),[13],-0.301
same,glycan array binding signal (z-score),[14],0.316
same,glycan array binding signal (z-score),[15],-0.319
same,glycan array binding signal (z-score),[16],0.025
same,glycan array binding signal (z-score),[17],0.53
same,glycan array binding signal (z-score),GlcNAc(b1-3)Fuc,-0.221
same,glycan array binding signal (z-score),GlcNAc(b1-3)Gal,-0.296
same,glycan array binding signal (z-score),[18],-0.105
same,glycan array binding signal (z-score),GlcNAc(b1-3)Gal(b1-4)Glc,-0.172
same,glycan array binding signal (z-score),[19],-0.151
same,glycan array binding signal (z-score),[20],0.013
same,glycan array binding signal (z-score),[21],0.112
same,glycan array binding signal (z-score),[22],0.95
same,glycan array binding signal (z-score),[23],-0.183
same,glycan array binding signal (z-score),[24],0.378
same,glycan array binding signal (z-score),[25],-0.169
same,glycan array binding signal (z-score),[26],0.656
same,glycan array binding signal (z-score),[27],-0.145
same,glycan array binding signal (z-score),[28],0.253
same,glycan array binding signal (z-score),[29],0.624
same,glycan array binding signal (z-score),[30],-0.054
same,glycan array binding signal (z-score),[31],-0.435
same,glycan array binding signal (z-score),[32],0.094
same,glycan array binding signal (z-score),[33],0.027
same,glycan array binding signal (z-score),[34],-0.289
same,glycan array binding signal (z-score),[35],-0.306
